Measured values reported in PubChem BioAssay AID1159614 (National Center for Advancing Translational Sciences (NCATS), 2016).
The whole screen tested about 45,000 compounds, of which about 65 (0.1%) were called active. The call rests on the fitted dose curve; in most records, active means well fitted activation curve with a large enough effect; inconclusive means small, poorly fitted or top-dose-only effect; inactive means no such curve, though single readings can be large or run the other way. The list shows a part of the results.

The molecules below were run against Galactocerebrosidase (Homo sapiens) (UniProt P54803) (assay: A Novel Cell-Based Assay to Identify Small Molecules for B -Galactocerebrosidase). Settings: 145M-Twi-hGALC-G270D cells (Twitcher mouse brain line with human GALC G270D), HMU-beta-Gal fluorescence, 48 h; series mostly up to 57.5 µM; activation: at the top concentration.
Method in brief: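 Fluorogenic HMU-b-Gal hydrolysis (0.1 mM final, pH 5.2 citrate-phosphate with 1 mg/mL sodium taurocholate; carbonate stop buffer) measures mutant GALC activity after compound treatment of live 145M-Twi Twitcher brain cells stably carrying human GALC-G270D, with wild-type GALC line alongside; activation sought.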
Further: 0% is about no effect; nearly all actives have a fitted effect of over 65% in size.

Sequence of UniProt P54803 (P54803 whole entry, looked up): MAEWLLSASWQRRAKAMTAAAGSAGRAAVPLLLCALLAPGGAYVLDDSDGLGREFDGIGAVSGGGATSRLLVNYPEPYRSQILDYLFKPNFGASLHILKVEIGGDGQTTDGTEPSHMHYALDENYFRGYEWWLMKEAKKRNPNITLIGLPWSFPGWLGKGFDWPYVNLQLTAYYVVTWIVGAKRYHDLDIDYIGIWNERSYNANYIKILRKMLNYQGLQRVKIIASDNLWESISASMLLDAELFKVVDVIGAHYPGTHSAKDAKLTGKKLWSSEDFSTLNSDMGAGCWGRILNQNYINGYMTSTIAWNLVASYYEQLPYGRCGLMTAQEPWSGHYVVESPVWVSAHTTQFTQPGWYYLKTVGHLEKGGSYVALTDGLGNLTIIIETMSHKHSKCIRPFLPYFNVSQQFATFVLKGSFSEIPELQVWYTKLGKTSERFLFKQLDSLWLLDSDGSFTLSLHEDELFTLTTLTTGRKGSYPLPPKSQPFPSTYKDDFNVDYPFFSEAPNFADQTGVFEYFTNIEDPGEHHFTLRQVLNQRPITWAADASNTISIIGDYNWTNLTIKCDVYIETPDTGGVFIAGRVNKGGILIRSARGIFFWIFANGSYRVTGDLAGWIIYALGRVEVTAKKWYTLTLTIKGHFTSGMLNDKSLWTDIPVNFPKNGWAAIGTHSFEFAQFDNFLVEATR

activation, inactive:
CCNC(=O)c1c(C)oc2ncn(C)c(=O)c12 5.2%
CCc1ccc(CNC(=O)CSc2cc(=O)n(CC)c3ccccc23)cc1 -16.7%
Cc1ccc(-c2cn3c(n2)sc2cc(C(=O)NC4CCCc5ccccc54)ccc23)cc1 (configuration not stated) -0.54%
CCOCCCNC(=O)C1CCN(c2cc(C)nc3c(-c4ccc(Cl)cc4)c(C)nn23)CC1 -2.98%
CCc1ccc(NS(=O)(=O)c2ccc3[nH]cc(C(=O)NCc4ccc(C)cc4)c(=O)c3c2)cc1 4.37%
CC(=O)O[C@@H]1C(=O)O[C@@H]2[C@H]1OC(=O)[C@@H]2OC(C)=O -4.37%
CCOc1ccc(-n2c(=O)c3c4c(sc3n(Cc3cccc(C)c3)c2=O)CCCC4)cc1 -8.64%
Clc1ccc2nc(Nc3ccccc3Cl)nc(-c3ccccc3)c2c1 -1.24%
COc1ccc(NC(=O)Cn2c(=O)n(CC(=O)NCCc3ccccc3)c(=O)c3ccccc32)cc1 -6.36%
CC/C(=C(/CC)c1ccc(O)cc1)c1ccc(O)cc1 3.92%
COc1ccc(CNC(=O)c2cc3c(-c4ccccc4F)nn(C)c3s2)cc1 -9.03%
O=C(Nc1ccc(Br)cc1F)C(NS(=O)(=O)c1cccc2nsnc12)c1ccccc1 (configuration not stated) -9.93%
Cc1ccc(NC(=O)c2cc3c(-c4ccccc4)nn(-c4ccccc4)c3s2)cc1 -11.1%
COc1ccc(OC)c(NC(=O)c2c(NCc3ccc(OC)c(OC)c3)sc3c2CCC3)c1 -4.75%
CCOc1ccccc1NC(=O)Nc1cc(C(=O)NCc2ccc(C)cc2)ccc1N1CCCC1 -11.3%
Cc1ccccc1Cn1c2ccccc2c2cnn(CC(=O)NCCCc3ccccc3)c(=O)c21 -18.1%
O=C(Cn1c(-c2cccs2)cc2cc(F)ccc21)N1CCN(c2cccc(Cl)c2)CC1 -11.9%
CSc1ccc2c(c1)N(CCC1CCCCN1C)c1ccccc1S2 (configuration not stated) -41.8%
COc1cccc(Cc2nc3ccccc3nc2SCC(=O)N2CCN(c3ccccc3)CC2)c1 -2.59%
O=C(Nc1cc(-c2nc3ccccc3o2)ccc1Cl)c1ccc(Br)o1 5.98%
COc1cc(-c2noc(-c3ccc(N(C)C)c([N+](=O)[O-])c3)n2)cc(OC)c1OC 1.68%
Cc1ccc(CCNc2nc3c(S(=O)(=O)c4ccccc4)nnn3c3ccsc23)cc1 -23.4%
Cc1c(C(=O)NCc2ccccc2)sc2nc[nH]c(=O)c12 -8.9%
CCOc1ccc(Nc2sc(C(=O)c3ccc4c(c3)OCO4)c(N)c2S(=O)(=O)c2ccc(C)cc2)cc1 -9.12%
COc1ccccc1CNC(=O)CSc1cc(=O)n(C)c2ccccc12 -17.5%
COc1ccc(-c2cc(C(F)(F)F)nc(NCc3ccc(Cl)cc3)n2)cc1 8.26%
Cn1nc(C(=O)N2CCN(c3ccc(Cl)cc3)CC2)c2c1-c1ccccc1S(=O)(=O)C2 -14.3%
